Measurements reported in PubChem BioAssay AID1347073 (National Center for Advancing Translational Sciences (NCATS), 2019).
The whole screen tested about 45,000 compounds, of which about 200 (0.44%) were called active. About 7% were inconclusive and are not listed. The call rests on the fitted dose curve; in most records, active means well fitted activation curve with a large enough effect; inconclusive means small, poorly fitted or top-dose-only effect; inactive means no such curve, though single readings can be large or run the other way. The list shows a part of the results.

Assay: qHTS of TDP-43 Inhibitors: NCGC Sytravon Library Screen; further: 0% is about no effect; nearly all actives have a fitted effect of over 55% in size
Details: yeast TDP-43 toxicity rescue, BacTiter-Glo growth, 24 h; series mostly up to 46.1 µM; growth rescue (activation): at the top concentration
Method in brief: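 TDP-43-expressing yeast, pregrown in raffinose, seeded at OD600 0.02 in galactose medium with compound for 24 hr at 30 deg C. Growth read by BacTiter-Glo luminescence, so rescue of toxicity appears as activation.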

| Compound | growth rescue (activation) |
| --- | --- |
| COc1ccc(CN(C)CC(=O)NC(=O)NCc2ccccc2)c(OC)c1 | inactive: -7.39% |
| COc1ccc(Cc2nnc(NC(=O)c3cccc([N+](=O)[O-])c3)s2)cc1 | inactive: -4.66% |
| O=C1c2ccccc2C2=Nc3ccccc3SC(c3ccc(Cl)cc3)C12 (configuration not stated) | inactive: 22.1% |
| CC(NC(=O)CSc1nc(=O)cc(N)n1-c1ccccc1)c1ccccc1 (configuration not stated) | inactive: -15% |
| O=C(NC1CC2CCCC(C1)N2Cc1ccccc1)C1CCCCC1 (configuration not stated) | inactive: 5.09% |
| CC(C(=O)N1CCc2ccccc21)N1CCN(Cc2ccc(Cl)cc2)CC1 (configuration not stated) | inactive: -6.99% |
| CCOC(=O)c1c(-c2ccccc2)csc1NC(=O)/C(C#N)=C/c1ccc(OC)c(OC)c1 | inactive: 8.28% |
| Cc1[nH][nH]c(=O)c1C(c1ccc(N(C)C)c(Br)c1)c1c(C)[nH][nH]c1=O | inactive: -9.93% |
| N#C/C(=C\c1c(Oc2ccccc2Cl)nc2ccccn2c1=O)C(=O)NC1CCS(=O)(=O)C1 (configuration not stated) | inactive: 3.81% |
| O=C(CO/N=C/c1ccccc1)Nc1c(F)c(F)c(F)c(F)c1F | inactive: 12.6% |
| Cc1ccc(NC(=O)COC(=O)/C=C/c2ccccc2)cc1S(=O)(=O)N1CCOCC1 | inactive: 11.2% |
| CC1CCc2cc(F)ccc2N1S(=O)(=O)c1ccc(Cl)nc1 (configuration not stated) | inactive: 30.3% |
| O=C(c1ccc(F)cc1)C1CCN(C(=O)Nc2ccc(F)cc2F)CC1 | inactive: 30.2% |
| O=C(O)c1cc([N+](=O)[O-])cc2c1nnn2O | inactive: -0.141% |
| Cc1nc(C)c(C(=O)N/N=C/c2c[nH]c3ccccc23)s1 | inactive: 4.68% |
| O=C(COC(=O)C1CC1)Nc1ccc(N=Nc2ccccc2)cc1 | inactive: 15.8% |
| CC1CCN(CCC(=O)Nc2ccccc2)CC1 | inactive: 2.37% |
| CN(C)S(=O)(=O)NCCNc1ccc(C(F)(F)F)cc1[N+](=O)[O-] | inactive: -23.7% |
| Cc1cc(NC(=O)C2CC2)ccc1NC(=O)c1cccs1 | inactive: -23% |
| Oc1ccc(N2CCN(CC(O)c3ccccc3)CC2)cc1 (configuration not stated) | inactive: 12.1% |
| O=C(O)C1CSC(c2ccc3c(c2)OCO3)N1 (configuration not stated) | inactive: 5.93% |
| Cn1c(N)c(C(=O)COC(=O)/C=C/c2ccccc2)c(=O)n(C)c1=O | inactive: -1.93% |

| Compound | growth rescue (activation) |
| --- | --- |
| CCCCOc1ccc(CNC(=O)C2CCN(c3nnc(-n4cccc4CNc4ccc(C)cc4)s3)CC2)cc1 | inactive: 1.36% |
| Cc1ccc(NC(=O)Cc2nnc(SCC(=O)Nc3nncs3)n2C)c(C)c1 | inactive: 6.94% |
| CCOC(=O)c1c(NC(=O)C2=C(C)NC(=S)NC2c2ccc(F)cc2F)sc(C)c1C (configuration not stated) | inactive: 29.6% |
| Cc1cccc(CC2SC(N)=NC2=O)c1 (configuration not stated) | inactive: 5.97% |
| CCN(CC)C(=O)C(=O)N/N=C/c1ccc(C(=O)O)cc1 | inactive: 8.09% |
| CCCC(C)C(=O)NCc1ccncc1 (configuration not stated) | inactive: 5.37% |
| C#CCOC(=O)/C(=C/C=C/c1ccccc1)NC(=O)c1ccccc1 | inactive: 2.94% |
| CNC(=O)NC(=O)C(OC(=O)Cc1cccc(C(F)(F)F)c1)c1ccccc1 (configuration not stated) | inactive: -13.3% |
| COC(=O)C1=C(C)N(c2ccccc2)C(=S)NC1c1ccccc1C(F)(F)F (configuration not stated) | inactive: 20.3% |
| Cc1ccc(C(=O)Nc2ccccc2NC(=O)c2ccc(C)o2)o1 | inactive: 14.9% |
| O=C(NNC1OC(CO)C(O)C(O)C1O)c1cccc(Br)c1 (configuration not stated) | inactive: 8.25% |
| CC(C)(C)c1ccc(/C=N/N2C(=O)CSC2=S)cc1 | inactive: 27% |
| COc1ccc(/C=N\NC(=O)c2cc(O)c(O)c(O)c2)cc1CN1CCN(c2ccc(F)cc2)CC1 | inactive: -18.7% |
| C[n+]1cccc(/C=N/Nc2nc(Cl)c(C#N)c(Cl)c2Cl)c1 | inactive: 6.62% |
| O=C(NCC(F)(F)F)c1ccc2sc([C@@H]3O[C@H](CO)[C@H](O)[C@H](O)[C@H]3O)nc2c1 | inactive: -3.86% |
| CCOc1ccccc1OCCOCCOc1c(Cl)cccc1Cl | inactive: -22.5% |
| O=C(Nc1cccc(S(=O)(=O)N2CCCCC2)c1)Nc1ccc(Cl)cc1Cl | inactive: 18.6% |
| COc1cc(NC(=O)C2(C)CCN2C(=O)C(C)C)cc(OC)c1OC (configuration not stated) | inactive: 5.61% |
| O=C(Nc1ccc(S(=O)(=O)N2CCOCC2)cc1)C1CC(=O)N(c2ccc(F)cc2)C1 (configuration not stated) | inactive: -8.83% |
| COc1cc(OC)cc(C(=O)OCC(=O)N(C)c2ccccc2)c1 | inactive: 1.23% |
| CCn1c(CC(=O)Nc2ccccc2F)nnc1SCC(=O)N1CCOCC1 | inactive: 18% |
| Cc1cccc(N=Cc2[nH]c3ccc(Br)c(Cl)c3c2O)c1 | inactive: 10% |

| Compound | growth rescue (activation) |
| --- | --- |
| COc1ccc(CNCCC2(O)CC(C)N(C)CC2C)cc1OC (configuration not stated) | inactive: 6.59% |
| CC1CCc2c(sc3nc(C(C)(C)C)nc(N4CCN(C(=O)CCl)CC4)c23)C1 (configuration not stated) | inactive: -86.2% |
| Cc1ccc(S(=O)(=O)Nc2ccc(-c3nnc(SCc4ccccc4Cl)o3)cc2)cc1 | inactive: 19.4% |
| COc1ccc(C(=O)N2CCC(C(=O)NC3CC3)CC2)cc1 | inactive: 5.82% |
| Cc1sc2ncnc(Nc3ccc(O)cc3)c2c1C | inactive: -29.7% |
| CSc1nnc(NC(=O)c2nc(S(=O)(=O)Cc3ccccc3)ncc2Cl)s1 | inactive: 3.43% |
| CCC(CC)c1nnc(NC(=O)CCc2ccccc2OC)s1 | inactive: 12.3% |
| COC(=O)[C@H](CCSC)NC(=O)Nc1ccc(OC)c(Cl)c1 | inactive: 26.8% |
| CCOC(=O)C1=C(C)NC(=O)NC1c1cccs1 (configuration not stated) | inactive: -2.36% |
| CCOc1cc(N2CCOCC2)c(OCC)cc1NC(=O)c1ccc(OC)c(S(=O)(=O)N2CCOCC2)c1 | inactive: -1.23% |
| COCCn1c(SCC(=O)NC2CCCC2)nc2ccccc2c1=O | inactive: 6.4% |
| O=C(COc1ccccc1Cl)NCCCNC(=O)c1ccncc1 | inactive: 8.24% |
| CCOC(=O)Nc1ccc2c(COC(=O)CNS(=O)(=O)c3cccc(Br)c3)cc(=O)oc2c1 | inactive: 17.6% |
| N#Cc1c(F)cccc1N1CCOCC1 | inactive: 4.78% |
| CCSc1ccc(-c2cc(NC=O)c3ncc(-c4cccc(C(=O)N(C)C)c4)n3c2)cc1 | inactive: 17.3% |
| CC(=O)Oc1ccc2oc(=O)c3c(c2c1)CCCN3C(=O)CN1CCOCC1 | inactive: 0.58% |
| COc1ccc2cc(C3(C)NC(=O)N(CC(=O)N4CCCCC4)C3=O)ccc2c1 (configuration not stated) | inactive: 3.5% |
| CCN(CC)S(=O)(=O)c1ccc(N2CCOCC2)c(NC(=O)c2ccc(C#N)cc2)c1 | inactive: -2.55% |
| Cc1cc(OCC(=O)NC2CCN(C)CC2)ccc1[N+](=O)[O-] | inactive: 14.7% |
| CCOc1ccc2nc(SCC(=O)NC3CCCCC3)[nH]c2c1 | inactive: 9.83% |
| Cc1nc2ccc(NC(=S)NCCCO)cc2nc1C | inactive: 13.1% |
| O=C1Nc2ccc([N+](=O)[O-])cc2OC1CCN1CCN(Cc2ccccc2)CC1 (configuration not stated) | inactive: -14.4% |

| Compound | growth rescue (activation) |
| --- | --- |
| Cc1nnc(NC(=O)CSc2nc3c(c(=O)n(C)c(=O)n3C)n2C(C)C)s1 | inactive: 4.7% |
| Cc1ccc(-c2nc3ccccc3o2)cc1NC(=S)NC(=O)c1cc2ccccc2o1 | inactive: -6.14% |
| COc1cc(C(=O)Nc2cc(OC)c(OC)c(OC)c2)ccc1OCc1c(C)noc1C | inactive: 19% |
| Cc1ccc(N(C(=O)CNC(=O)c2ccco2)C(C(=O)NC2CCCC2)c2ccncc2)c(C)c1 (configuration not stated) | inactive: -17.6% |
| Cc1ccc(C)c(-n2cc(CN3CCNC(=O)CC3)c(-c3ccccc3)n2)c1 | inactive: -5.21% |
| c1ccc(Cc2nnc3n2CCCCC3)cc1 | inactive: 16.3% |
| CC(=O)c1ccc(NC(=O)CCC(=O)OCC(=O)c2cccc([N+](=O)[O-])c2)cc1 | inactive: 9.89% |
| O=C(O)c1ccc(/C=N/N2CCN(Cc3cccc4ccccc34)CC2)cc1 | inactive: -7.18% |
| CCOc1ccc(Br)cc1S(=O)(=O)NC1=NCCCCC1 | inactive: 4.69% |
| C=CCN(CC=C)CCOc1ccc2ccccc2c1 | inactive: 4.14% |
| C(=N\N1CCN(c2ccccn2)CC1)/c1ccco1 | inactive: -1.27% |
| O=C(COC(=O)/C=C/c1nc2ccccc2s1)Nc1cccc(Cl)c1Cl | inactive: 7.12% |
| Cc1ccc2cc3cc(C(=O)NCc4ccc5c(c4)OCO5)oc3nc2c1 | inactive: 11.8% |
| O=C(COc1ccc(S(=O)(=O)N2CCOCC2)cc1)Nc1ccccc1Cl | inactive: 15.2% |
| c1ccc(SCc2nc(-c3ccncc3)n[nH]2)nc1 | inactive: -18.5% |
| CN(C)CCNC(=O)c1cccc(-c2cnc3c(NC=O)cc(-c4ccccc4F)cn23)c1 | inactive: -1.17% |
| CN(C)CCCNc1nc2cc(-c3cnn(C)c3)sc2c(=O)n1C | inactive: 12% |
| Cc1ccccc1C(=O)N1CCC(C(=O)NCCc2ccc(S(N)(=O)=O)cc2)CC1 | inactive: 0.675% |
| Cc1cc(OC(C)C(=O)NCCCN2CCOCC2)ccc1Cl (configuration not stated) | inactive: -2.36% |
| CCN(CC)S(=O)(=O)c1cccc(C(=O)N/N=C/c2ccc(O)c(O)c2O)c1 | inactive: -4.61% |
| COc1ccc(C(=O)NNC(=S)NC(=O)C(C)(C)C)cc1 | inactive: -8.15% |
| COc1cc2c(cc1OC)CN(C(=S)Nc1c(C)cccc1C)CC2 | inactive: 4.32% |

| Compound | growth rescue (activation) |
| --- | --- |
| Cc1ccc(C(=O)COC(=O)c2ccccc2NC(=O)c2ccccc2)cc1[N+](=O)[O-] | inactive: 23.5% |
| Cc1cccc(/C=N/NC(=O)c2cc(Br)ccc2OCc2ccccc2)n1 | inactive: 19.8% |
| CCN(C(=O)COC(=O)CNC(=O)c1ccc(C)s1)c1ccccc1 | inactive: -1.92% |
| Cc1ccccc1CC(=O)Nc1ccc2c(c1)c(=O)n(C)n2-c1ccccc1F | inactive: 7.99% |
| CCCSc1ncc(Cl)c(C(=O)Nc2nc3ccc(OCC)cc3s2)n1 | inactive: 14.3% |
| CNC(=O)C1Cc2c(-c3cccc(F)c3)ccnc2O1 (configuration not stated) | inactive: 4.69% |
| CC(=O)c1ccc(N2CCN(Cc3cc(=O)n4c(-c5ccccc5)csc4n3)CC2)cc1 | inactive: 20.7% |
| S=c1[nH]nc(C2CCCCC2)n1Cc1ccccc1 | inactive: 21% |
| CCCOC1CCCN(C(=O)CCc2nnc(Cc3cccc(C)c3)o2)C1 (configuration not stated) | inactive: 6.88% |
| Cn1c(N)c(C(=O)COc2ccc(Cl)cc2Cl)c(=O)n(C)c1=O | inactive: 11.6% |
| O=C(CCSc1nc(-c2ccco2)cc(C(F)(F)F)n1)N1CCN(c2ccccn2)CC1 | inactive: 4.82% |
| CCC(C)(C)NC(=O)C(c1cccn1C)N(C(=O)Cn1nnc2ccccc21)c1ccc(F)cc1 (configuration not stated) | inactive: 23% |
| O=C(NCCc1ccccc1)C(=O)N/N=C/c1ccc2c(c1)OCO2 | inactive: -27.3% |
| COc1ccc2o/c(=N/NC(=O)c3cccs3)c(C(N)=O)cc2c1 | inactive: 1.12% |
| Cc1ccc(C(=O)NCCNC(=O)c2ccco2)cc1C | inactive: 0.317% |
| Cc1ccc(CNc2nc(NC(C)C)nc3ccsc23)c(C)c1 | inactive: 13.4% |
| CNC(=S)N/N=C/c1ccc(OCC(=O)Nc2c(C)cc(C)cc2C)c(OC)c1 | inactive: -0.439% |
| CC(C)CC(=O)NC(=S)Nc1ccccc1C(F)(F)F | inactive: -2.56% |
| CC(C)OCCCNC(=O)CN1C(=O)/C(=C/c2ccccc2F)Oc2ccccc21 | inactive: -0.824% |
